From US20230242646A1 (JJP BIOLOGICS SP Z O O, published 2023)

How the values were obtained:
[1] = target: T1, recombinant C-terminal polyhistidine-tagged human (extracellular) CD89 (Sino Biological) (human, UniProt P24071 partial chain); assay: ELISA on plate-coated rhuCD89; titrated supernatant; HRP goat anti-human IgG Fc detection, OD 450 nm [VL1]
T1 construct: extracellular domain; bought protein; also called rhuCD89; soluble monomeric rhuCD89

[2] = target: T1, recombinant C-terminal …; assay: ELISA on plate-coated rhuCD89; titrated supernatant; HRP goat anti-human IgG Fc detection, OD 450 nm [VL2]

T1 sequence (P24071 22-227): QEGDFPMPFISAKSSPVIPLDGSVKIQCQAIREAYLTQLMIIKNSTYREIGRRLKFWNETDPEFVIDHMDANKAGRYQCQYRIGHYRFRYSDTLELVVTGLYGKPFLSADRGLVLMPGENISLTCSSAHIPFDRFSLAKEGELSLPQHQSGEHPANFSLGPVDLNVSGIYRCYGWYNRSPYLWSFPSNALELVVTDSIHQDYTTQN

Binder	binding result [1]	EC50 (read off the curve) [2]	further results
humanized IgG4/kappa anti-human CD89 monoclonal antibody 10E7 version VH1VL2 (antibody, tested as supernatant; signal peptide end derived as for m17) heavy: EVQLLESGGGLVQPGGSLRLSCAASGLTFSSYGMSWVRQAPGKGLEWVSTINGNGDITYYPDSVKGRFTISRDNSKNTLYLQMNSLRAEDTAVYYCARDYDYDYAMDYWGQGTLVTVSSASTKGPSVFPLAPCSRSTSESTAALGCLVKDYFPEPVTVSWNSGALTSGVHTFPAVLQSSGLYSLSSVVTVPSSSLGTKTYTCNVDHKPSNTKVDKRV[human IgG4 Fc with S228P (EU numbers) not given here] light: DIQMTQSPSSLSASVGDRVTITCRASQDIINYLNWYQQKPGKAPKLLIYYTSRLHSGVPSRFSGSGSGTDYTLTISSLQPEDFATYYCQQGKTLPYTFGQGTKLEIKRTVAAPSVFIFPPSDEQLKSGTASVVCLLNNFYPREAKVQWKVDNALQSGNSQESVTEQDSKDSTYSLSSTLTLSKADYEKHKVYACEVTHQGLSSPVTKSFNRGEC		~0.07 µg/mL	
humanized IgG4/kappa anti-human CD89 monoclonal antibody 10E7 version VH3VL1 (antibody, tested as supernatant; signal peptide end derived as for m17) heavy: EVQLLESGGGLVQPGGSLRLSCAASGLTFSSYGMSWVRQAPGKGLELVATINGNGDITYYPDSVKGRFTISRDNSKNTLYLQMNSLRAEDTAVYYCARDYDYDYAMDYWGQGTLVTVSSASTKGPSVFPLAPCSRSTSESTAALGCLVKDYFPEPVTVSWNSGALTSGVHTFPAVLQSSGLYSLSSVVTVPSSSLGTKTYTCNVDHKPSNTKVDKRV[human IgG4 Fc with S228P (EU numbers) not given here] light: DIQMTQSPSSLSASVGDRVTITCRASQDIINYLNWYQQKPGKAPKLLIYYTSRLHSGVPSRFSGSGSGTDFTLTISSLQPEDFATYYCQQGKTLPYTFGQGTKLEIKRTVAAPSVFIFPPSDEQLKSGTASVVCLLNNFYPREAKVQWKVDNALQSGNSQESVTEQDSKDSTYSLSSTLTLSKADYEKHKVYACEVTHQGLSSPVTKSFNRGEC			EC50 (read off the curve) [1]: ~0.05 µg/mL
humanized IgG4/kappa anti-human CD89 monoclonal antibody 10E7 version VH2VL2 (antibody, tested as supernatant; signal peptide end derived as for m17) heavy: EVQLLESGGGLVQPGGSLRLSCAASGLTFSSYGMSWVRQAPGKGLEWVATINGNGDITYYPDSVKGRFTISRDNSKNTLYLQMNSLRAEDTAVYYCARDYDYDYAMDYWGQGTLVTVSSASTKGPSVFPLAPCSRSTSESTAALGCLVKDYFPEPVTVSWNSGALTSGVHTFPAVLQSSGLYSLSSVVTVPSSSLGTKTYTCNVDHKPSNTKVDKRV[human IgG4 Fc with S228P (EU numbers) not given here] light: DIQMTQSPSSLSASVGDRVTITCRASQDIINYLNWYQQKPGKAPKLLIYYTSRLHSGVPSRFSGSGSGTDYTLTISSLQPEDFATYYCQQGKTLPYTFGQGTKLEIKRTVAAPSVFIFPPSDEQLKSGTASVVCLLNNFYPREAKVQWKVDNALQSGNSQESVTEQDSKDSTYSLSSTLTLSKADYEKHKVYACEVTHQGLSSPVTKSFNRGEC		~0.05 µg/mL	
humanized IgG4/kappa anti-human CD89 monoclonal antibody 10E7 version VH2VL1 (antibody, tested as supernatant; signal peptide end derived as for m17) heavy: EVQLLESGGGLVQPGGSLRLSCAASGLTFSSYGMSWVRQAPGKGLEWVATINGNGDITYYPDSVKGRFTISRDNSKNTLYLQMNSLRAEDTAVYYCARDYDYDYAMDYWGQGTLVTVSSASTKGPSVFPLAPCSRSTSESTAALGCLVKDYFPEPVTVSWNSGALTSGVHTFPAVLQSSGLYSLSSVVTVPSSSLGTKTYTCNVDHKPSNTKVDKRV[human IgG4 Fc with S228P (EU numbers) not given here] light: DIQMTQSPSSLSASVGDRVTITCRASQDIINYLNWYQQKPGKAPKLLIYYTSRLHSGVPSRFSGSGSGTDFTLTISSLQPEDFATYYCQQGKTLPYTFGQGTKLEIKRTVAAPSVFIFPPSDEQLKSGTASVVCLLNNFYPREAKVQWKVDNALQSGNSQESVTEQDSKDSTYSLSSTLTLSKADYEKHKVYACEVTHQGLSSPVTKSFNRGEC	binds		

The next lines start with results.

binding result [1]	EC50 (read off the curve) [2]	Binder	further results
binds		humanized IgG4/kappa anti-human CD89 monoclonal antibody 10E7 version VH1VL1 (antibody, tested as supernatant; IgG4 S239P) heavy: EVQLLESGGGLVQPGGSLRLSCAASGLTFSSYGMSWVRQAPGKGLEWVSTINGNGDITYYPDSVKGRFTISRDNSKNTLYLQMNSLRAEDTAVYYCARDYDYDYAMDYWGQGTLVTVSSASTKGPSVFPLAPCSRSTSESTAALGCLVKDYFPEPVTVSWNSGALTSGVHTFPAVLQSSGLYSLSSVVTVPSSSLGTKTYTCNVDHKPSNTKVDKRV[human IgG4 Fc with S228P (EU numbers) not given here] light: DIQMTQSPSSLSASVGDRVTITCRASQDIINYLNWYQQKPGKAPKLLIYYTSRLHSGVPSRFSGSGSGTDFTLTISSLQPEDFATYYCQQGKTLPYTFGQGTKLEIKRTVAAPSVFIFPPSDEQLKSGTASVVCLLNNFYPREAKVQWKVDNALQSGNSQESVTEQDSKDSTYSLSSTLTLSKADYEKHKVYACEVTHQGLSSPVTKSFNRGEC	
	~0.03 µg/mL	humanized IgG4/kappa anti-human CD89 monoclonal antibody 10E7 version VH3VL2 (antibody, tested as supernatant; signal peptide end derived as for m17) heavy: EVQLLESGGGLVQPGGSLRLSCAASGLTFSSYGMSWVRQAPGKGLELVATINGNGDITYYPDSVKGRFTISRDNSKNTLYLQMNSLRAEDTAVYYCARDYDYDYAMDYWGQGTLVTVSSASTKGPSVFPLAPCSRSTSESTAALGCLVKDYFPEPVTVSWNSGALTSGVHTFPAVLQSSGLYSLSSVVTVPSSSLGTKTYTCNVDHKPSNTKVDKRV[human IgG4 Fc with S228P (EU numbers) not given here] light: DIQMTQSPSSLSASVGDRVTITCRASQDIINYLNWYQQKPGKAPKLLIYYTSRLHSGVPSRFSGSGSGTDYTLTISSLQPEDFATYYCQQGKTLPYTFGQGTKLEIKRTVAAPSVFIFPPSDEQLKSGTASVVCLLNNFYPREAKVQWKVDNALQSGNSQESVTEQDSKDSTYSLSSTLTLSKADYEKHKVYACEVTHQGLSSPVTKSFNRGEC	
